The assay deals with human immunodeficience virus (HIV). Put plainly: Virucidal activity, suspension test in vitro (MU 3.52431-08). In kind it is cell-based. Conditions: conclusion from Table 2. From the text: Virucidal activity of copper acrylate-propionate obtained as described in example 4 was investigated by analogy with examples 14-19.
Virucidal activity of zinc methacrylate-myristate obtained as described in example 11 was investigated by analogy with examples 14-19.

For `C=C(C)C(=O)[O-].CC(=O)[O-].[Zn+2]` [Zinc methacrylate-acetate, zinc methacrylate-acetate], the “Virucidal activity (criterion for disinfectants: inhibition not less than 4 lg TCID50)” value is “does not substantially exhibit virucidal activity”.

Values taken from patent US9924715B2, “Zinc or copper (II) salt and use thereof as a biocide” (LABORATORIYA BIO ZET, LLC, priority 2014, dated 2018).
